Data taken from the supplement of paper PMC9446081.
Screen size: about 39,000 compounds; about 220 (0.56%) showed activity. The list shows a part of the results.
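Further: static incubation at 37 °C against the wild-type strain, values averaged over two biological replicates.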

These compounds were tested on Escherichia coli K-12 BW25113 (assay: relative growth (OD600 normalised to plate interquartile mean) (fraction); higher = less growth inhibition, active = 0.2 or less). Conditions: 50 µM; LB; incubation time: overnight (16-24 h).
`Br.CN(C)CCCC1(c2ccc(F)cc2)OCc2cc(C#N)ccc21` (stereo not drawn) was tested, and the relative growth was inactive: 0.984. In the case of `C[C@@H]1CN([C@@H](C)CO)C(=O)Cc2cc(N(C)C)ccc2O[C@H]1CN(C)S(=O)(=O)c1cn(C)cn1`, the relative growth is reported as inactive: 0.994. `C[C@@H]1CN([C@H](C)CO)C(=O)Cc2cc(NC(=O)Cn3cnnn3)ccc2O[C@@H]1CN(C)S(=O)(=O)c1ccc(Cl)cc1` was tested, and the relative growth was inactive: 1.01. In the case of `C[C@@H]1CCCCO[C@@H](CN(C)C(=O)C2CCCCC2)[C@H](C)CN([C@H](C)CO)C(=O)c2cc(NC(=O)CCC(F)(F)F)ccc2O1`, the relative growth is reported as inactive: 0.989. For `C[C@H]1CCCCO[C@H](CN(C)CC2CCCCC2)[C@@H](C)CN([C@@H](C)CO)C(=O)c2cc(NC(=O)NC3CCCCC3)ccc2O1`, the relative growth was inactive: 1. For `C[C@H]1CN([C@@H](C)CO)S(=O)(=O)c2ccc(-c3ccc(F)cc3)cc2O[C@H]1CN(C)C(=O)C1CCOCC1`, the relative growth was inactive: 1. `S=c1[nH]nc(C2CCCCC2)[nH]1` was tested, and the relative growth was inactive: 0.902. For `C[C@H]1CN([C@@H](C)CO)C(=O)c2cc(NS(=O)(=O)c3cccs3)ccc2O[C@@H]1CN(C)Cc1ccc(Oc2ccccc2)cc1`, the relative growth was inactive: 0.979. For `COc1ccc(CN(C)C[C@@H]2OCCCC[C@H](C)Oc3ccc(NC(=O)Nc4ccc5c(c4)OCO5)cc3C(=O)N([C@@H](C)CO)C[C@@H]2C)cc1`, the relative growth was inactive: 0.982. `NC(=O)C1CCN(C(=O)c2ccco2)CC1` was tested, and the relative growth was inactive: 0.995. With `C[C@@H]1CCCCO[C@@H](CN(C)Cc2ccc(Cl)c(Cl)c2)[C@@H](C)CN([C@H](C)CO)C(=O)c2cc(NC(=O)Nc3ccc4c(c3)OCO4)ccc2O1` the relative growth was inactive: 1. In the case of `C[C@@H]1CN([C@H](C)CO)C(=O)c2cccc(NC(=O)Nc3ccc(C(F)(F)F)cc3)c2O[C@@H]1CN(C)C(=O)Nc1ccc(C(F)(F)F)cc1`, the relative growth is reported as inactive: 0.974. In the case of `COc1cccc(NC(=O)N2C[C@@H](O)COC[C@@H]3O[C@@H](CC(=O)NCCCN4CCOCC4)CC[C@H]32)c1`, the relative growth is reported as inactive: 0.883. `C[C@H]1CN([C@@H](C)CO)C(=O)Cc2cc(NS(=O)(=O)c3ccc(Cl)cc3)ccc2O[C@H]1CN(C)S(=O)(=O)c1cn(C)cn1` was tested, and the relative growth was inactive: 0.982. For `Cc1noc(C)c1NC(=O)N(C)C[C@H]1Oc2ccc(NS(=O)(=O)c3c(C)noc3C)cc2CC(=O)N([C@H](C)CO)C[C@H]1C`, the relative growth was inactive: 1. For `Cc1noc(C)c1NC(=O)Nc1ccc2c(c1)C(=O)N([C@H](C)CO)C[C@H](C)[C@H](CN(C)C(=O)Nc1ccc3c(c1)OCO3)OCCCC[C@H](C)O2`, the relative growth was inactive: 1.01. For `CC(C)(C)OC(=O)NCCOCCOCCOc1ccc(N(C(=O)CCl)[C@@H](C(=O)NCCc2ccccc2)c2cccs2)cc1Cl`, the relative growth was inactive: 1.04. With `O=C(CCCCC(=O)N/N=C/[C@H](O)[C@@H](O)[C@H](O[C@@H]1O[C@H](CO)[C@H](O)[C@H](O)[C@H]1O)[C@H](O)CO)NO` the relative growth was inactive: 1. `COc1ccc(CN(C)C[C@H]2Oc3ccc(NC(=O)CCCCCC(=O)Nc4ccccc4N)cc3CC(=O)N([C@H](C)CO)C[C@H]2C)cc1` was tested, and the relative growth was inactive: 0.96. With `CC(O)C(N)C(=O)O` (stereo not drawn) the relative growth was inactive: 1.05. In the case of `O=C(C[C@H]1CC[C@@H](NC(=O)Nc2ccc3c(c2)OCO3)[C@H](CO)O1)NCCCN1CCOCC1`, the relative growth is reported as inactive: 1.01. In the case of `O=C(O)[C@@H]1C[C@@H](O)CN1`, the relative growth is reported as inactive: 1.02. In the case of `COc1cccc(S(=O)(=O)Nc2ccc3c(c2)[C@H]2C[C@H](CC(=O)NCc4cccc(F)c4)O[C@H](CO)[C@H]2O3)c1`, the relative growth is reported as inactive: 1.02. In the case of `Cc1ccc(S(=O)(=O)N(C)C[C@@H]2Oc3ccc(NC(=O)CCCN(C)C)cc3C(=O)N([C@@H](C)CO)C[C@@H]2C)cc1`, the relative growth is reported as inactive: 1.01. With `C[C@@H]1CN([C@@H](C)CO)C(=O)c2cccc(NC(=O)c3ccc(-c4nccs4)cc3)c2O[C@H]1CN(C)Cc1ccccc1` the relative growth was inactive: 1.01. In the case of `C[C@@H]1CCCCO[C@@H](CN(C)C(=O)c2ccncc2)[C@H](C)CN([C@H](C)CO)C(=O)c2cc(NS(C)(=O)=O)ccc2O1`, the relative growth is reported as inactive: 0.984. For `CCC(CC)C(=O)N[C@@H]1CC(=O)N(C)C1`, the relative growth was inactive: 1.02. `C[C@@H]1CN([C@@H](C)CO)C(=O)c2cccc(NS(=O)(=O)c3cccs3)c2O[C@H]1CN(C)Cc1ccc(Oc2ccccc2)cc1` was tested, and the relative growth was inactive: 0.997. For `CS(=O)(=O)N1C[C@H]2COC[C@@]2(C(=O)NCc2ccccn2)C1`, the relative growth was inactive: 1. With `C[C@H]1CN([C@@H](C)CO)C(=O)c2cc(C#Cc3ccccc3)cnc2O[C@H]1CN(C)S(=O)(=O)c1ccccc1F` the relative growth was inactive: 1.04. In the case of `CCCC#Cc1ccc2c(c1)O[C@H](CN(C)C(=O)c1cnccn1)[C@@H](C)CN([C@@H](C)CO)S2(=O)=O`, the relative growth is reported as inactive: 1.01. `COCCOC(=O)N1C(=O)[C@@]2(c3cc(C#CCC(C(=O)OC)C(=O)OC)ccc31)[C@H](C(=O)N1CCc3cc(OC)c(OC)cc3C1)[C@H]1C(=O)O[C@H](c3ccccc3)[C@H](c3ccccc3)N1[C@@H]2c1ccccc1OCCO` was tested, and the relative growth was inactive: 1.04. With `COc1ccc(NC(=O)N(C)C[C@@H]2OCCCC[C@@H](C)Oc3ccc(NC(=O)c4ccncc4)cc3C(=O)N([C@H](C)CO)C[C@H]2C)cc1` the relative growth was inactive: 0.985. `O=C(C[C@H]1CC[C@H](NC(=O)Cc2ccccn2)[C@H](CO)O1)NCCc1ccncc1` was tested, and the relative growth was inactive: 1.04. With `C[C@@H]1CCCCO[C@@H](CN(C)Cc2ccc(Cl)c(Cl)c2)[C@H](C)CN([C@@H](C)CO)C(=O)c2cc(NC(=O)Cc3ccccc3)ccc2O1` the relative growth was inactive: 0.956. `CN(C)CC(=O)N[C@@H]1C=C[C@@H](CC(=O)NCCN2CCCCC2)O[C@@H]1CO` was tested, and the relative growth was inactive: 0.983. For `COC(=O)CCC(C)C1CCC2C3C(O)CC4CC(O)CCC4(C)C3CC(O)C12C` (stereo not drawn), the relative growth was inactive: 1.03. `C[C@H]1CN([C@@H](C)CO)C(=O)Cc2cc(NS(=O)(=O)c3cccs3)ccc2O[C@H]1CN(C)Cc1ccc(Oc2ccccc2)cc1` was tested, and the relative growth was inactive: 0.986. With `C[C@H]1COC(=O)[C@H](Cc2ccc(F)cc2)CCC=CC[C@@H](CC(=O)N[C@H](CO)Cc2ccccc2)C(=O)N1` the relative growth was inactive: 1.01. With `O=C(OC1Cc2c(O)cc(O)cc2OC1c1cc(O)c(O)c(O)c1)c1cc(O)c(O)c(O)c1` (stereo not drawn) the relative growth was inactive: 0.801. For `C[C@@H]1CCCCO[C@@H](CN(C)Cc2ccncc2)[C@@H](C)CN([C@H](C)CO)C(=O)c2cc(NS(=O)(=O)c3ccc(Cl)cc3)ccc2O1`, the relative growth was inactive: 0.993. For `Cc1noc(C)c1NC(=O)Nc1ccc2c(c1)C(=O)N([C@@H](C)CO)C[C@@H](C)[C@@H](CN(C)Cc1ccc(C(F)(F)F)cc1)OCCCC[C@@H](C)O2`, the relative growth was inactive: 0.972. `CCCN(C)C[C@H]1OCCCC[C@@H](C)Oc2ccc(NC(=O)NC3CCCCC3)cc2C(=O)N([C@@H](C)CO)C[C@H]1C` was tested, and the relative growth was inactive: 0.983. For `C[C@H](CO)N1C[C@H](C)[C@H](CN(C)C(=O)Nc2cccc3ccccc23)Oc2ccc(NS(=O)(=O)c3ccc(F)cc3)cc2CC1=O`, the relative growth was inactive: 0.995. In the case of `COc1ccc(S(=O)(=O)Nc2ccc3c(c2)C(=O)N([C@H](C)CO)C[C@@H](C)[C@@H](CN(C)Cc2ccc4c(c2)OCO4)OCCCC[C@H](C)O3)cc1`, the relative growth is reported as inactive: 1.02. In the case of `C[C@@H]1CN([C@H](C)CO)C(=O)c2cc(C#CC3(O)CCCC3)cnc2O[C@H]1CN(C)S(=O)(=O)c1ccc(F)cc1`, the relative growth is reported as inactive: 0.984. With `C[C@@H]1CN([C@H](C)CO)C(=O)Cc2cc(NS(=O)(=O)c3ccccc3)ccc2O[C@@H]1CN(C)S(=O)(=O)c1ccc(F)cc1` the relative growth was inactive: 0.921. For `COc1ccc(CN(C)C[C@H]2OCCCC[C@@H](C)Oc3ccc(NC(=O)Nc4ccccc4)cc3C(=O)N([C@@H](C)CO)C[C@H]2C)cc1`, the relative growth was inactive: 0.969. For `NCC[C@@H]1CC[C@@H](NC(=O)NC2CCCCC2)[C@@H](CO)O1`, the relative growth was inactive: 1. For `O=C(C[C@H]1C[C@@H]2c3cc(NS(=O)(=O)c4ccc(F)cc4)ccc3O[C@@H]2[C@H](CO)O1)NC1CCCC1`, the relative growth was inactive: 1.03. `C[C@@H]1CN([C@H](C)CO)C(=O)c2cccc(NC(=O)Nc3cccc4ccccc34)c2O[C@@H]1CN(C)C(=O)Nc1ccc2c(c1)OCO2` was tested, and the relative growth was inactive: 0.976. With `C[C@@H]1CCCCO[C@@H](CN(C)C(=O)Nc2cccc3ccccc23)[C@H](C)CN([C@H](C)CO)C(=O)c2cc(NC(=O)Nc3ccc(F)cc3)ccc2O1` the relative growth was inactive: 1.01. `COC(=O)CC1C(C)(C)C(=O)C2CC3=C4CC(=O)OC(c5ccoc5)C4(C)CCC3C1(C)C2=O` (stereo not drawn) was tested, and the relative growth was inactive: 1.08. `C[C@@H]1CN([C@@H](C)CO)C(=O)c2cccc(NC(=O)C3CCOCC3)c2O[C@@H]1CN(C)S(=O)(=O)c1cn(C)cn1` was tested, and the relative growth was inactive: 1.01. In the case of `C[C@@H]1CCCCO[C@H](CN(C)C(=O)Cc2ccccc2)[C@H](C)CN([C@H](C)CO)C(=O)c2cc(NS(=O)(=O)c3cccs3)ccc2O1`, the relative growth is reported as inactive: 0.994. With `COC(=O)[C@H]1c2cc3c(c(O)c2[C@@H](O[C@@H]2O[C@H](C)[C@H](OC)[C@](C)(OC)[C@@H]2OC)C[C@@]1(C)O)C(=O)c1c(O)cc2c(c1C3=O)O[C@H]1O[C@@]2(C)[C@@H](O)[C@H](N(C)C)[C@@H]1O` the relative growth was inactive: 1.03. With `COc1ccc2c3c(n(c2c1)C)[C@H](CO)N(C[C@]13CCN(CC1)C(=O)c1ccccn1)C(=O)c1ccccn1` the relative growth was inactive: 0.97. `C[C@@H]1CCCCO[C@H](CN(C)Cc2ccccc2)[C@H](C)CN([C@H](C)CO)C(=O)c2cc(NC(=O)C3CCCCC3)ccc2O1` was tested, and the relative growth was inactive: 0.989.
